# Measurements: the supplement of paper PMC8728848
# The other results are listed elsewhere or left out.
# B1: SSA (Sclerotinia sclerotiorum), A7XUK7 (protein)
# chain: MGFKGVGTYEIVPYQAPSLNLNAWEGKLEPGAVVRTYTRGDKPSDNAKWQVALVAGSGDSAEYLIINVHSGYFLTATKENHIVSTPQISPTDPSARWTIKPATTHQYEVFTINNKVSELGQLTVKDYSTHSGADVLSASAKTADNQKWYFDAK
# Columns and labels:
# Assay in all cases: glycan array binding signal (z-score within array); higher = stronger binding
# Details in all cases: glycan notation: IUPAC condensed, linker removed
# [1] = target: Fuc(a1-2)[GalNAc(a1-3)]Gal(b1-4)Glc
# Procedure, shortened: (§1)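 The binding signal is a Z-score computed within each array and averaged over linkers. Arrays of the same protein sequence at different concentrations or buffers were also averaged together. Data originate from 3228 arrays in the Consortium for Functional Glycomics database, kept only where the protein sequence was available.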
# [2] = target: Fuc(a1-2)[GalNAc(a1-3)]Gal(b1-4)GlcNAc
# Procedure, shortened: as §1
# [3] = target: Fuc(a1-2)[GalNAc(a1-3)]Gal(b1-4)GlcNAc(b1-2)Man(a1-3)[GalNAc(a1-3)[Fuc(a1-2)]Gal(b1-4)GlcNAc(b1-2)Man(a1-6)]Man(b1-4)GlcNAc(b1-4)GlcNAc
# Procedure, shortened: as §1
# [4] = target: Fuc(a1-2)[GalNAc(a1-3)]Gal(b1-4)GlcNAc(b1-3)Gal(b1-4)GlcNAc
# Procedure, shortened: as §1
# [5] = target: Fuc(a1-2)[GalNAc(a1-3)]Gal(b1-4)GlcNAc(b1-3)Gal(b1-4)GlcNAc(b1-3)Gal(b1-4)GlcNAc
# Procedure, shortened: as §1
# [6] = target: Fuc(a1-2)[GalNAc(a1-3)]Gal(b1-4)[Fuc(a1-3)]GlcNAc
# Procedure, shortened: as §1
# [7] = target: Fuc(a1-2)[GalNAc(a1-4)]Gal(b1-4)GlcNAc
# Procedure, shortened: as §1
# [8] = target: Fuc(a1-2)[GalNAc(b1-3)]Gal
# Procedure, shortened: as §1
# [9] = target: Fuc(a1-3)GlcNAc
# Procedure, shortened: as §1
# [10] = target: Fuc(a1-3)[Gal(b1-4)]Glc6S
# Procedure, shortened: as §1
# [11] = target: Fuc(a1-3)[Gal(b1-4)]GlcNAc
# Procedure, shortened: as §1
# [12] = target: Fuc(a1-3)[Gal(b1-4)]GlcNAc(b1-2)Man(a1-3)[Fuc(a1-3)[Gal(b1-4)]GlcNAc(b1-2)Man(a1-6)]Man(b1-4)GlcNAc(b1-4)GlcNAc
# Procedure, shortened: as §1
# [13] = target: Fuc(a1-3)[Gal(b1-4)]GlcNAc(b1-2)Man(a1-6)[Gal(b1-4)GlcNAc(b1-2)Man(a1-3)]Man(b1-4)GlcNAc(b1-4)GlcNAc
# Procedure, shortened: as §1
# [14] = target: Fuc(a1-3)[Gal(b1-4)]GlcNAc(b1-3)Gal(b1-3)[Fuc(a1-4)]GlcNAc
# Procedure, shortened: as §1
# [15] = target: Fuc(a1-3)[Gal(b1-4)]GlcNAc(b1-4)Gal(b1-4)[Fuc(a1-3)]GlcNAc
# Procedure, shortened: as §1
# [16] = target: Fuc(a1-3)[Gal(b1-4)]GlcNAc(b1-4)Gal(b1-4)[Fuc(a1-3)]GlcNAc(b1-4)Gal(b1-4)[Fuc(a1-3)]GlcNAc
# Procedure, shortened: as §1
# [17] = target: Fuc(a1-3)[Gal(b1-4)]GlcNAc6S
# Procedure, shortened: as §1
# [18] = target: Fuc(a1-3)[Gal3S(b1-4)]Glc6S
# Procedure, shortened: as §1
# [19] = target: Fuc(a1-3)[Gal3S(b1-4)]GlcNAc
# Procedure, shortened: as §1
# [20] = target: Fuc(a1-3)[Gal3S(b1-4)]GlcNAc6S
# Procedure, shortened: as §1
# [21] = target: Fuc(a1-3)[GalNAc(b1-4)]GlcNAc
# Procedure, shortened: as §1
# [22] = target: Fuc(a1-3)[Neu5Ac(a2-3)]Gal(b1-4)GlcNAc(b1-3)GalNAc
# Procedure, shortened: as §1
# [23] = target: Fuc(a1-4)GlcNAc
# Procedure, shortened: as §1
# [24] = target: Fuc(b1-3)GlcNAc
# Procedure, shortened: as §1
# [25] = target: Gal(a1-2)Gal
# Procedure, shortened: as §1
# [26] = target: Gal(a1-3)Gal
# Procedure, shortened: as §1
# [27] = target: Gal(a1-3)Gal(b1-3)GlcNAc
# Procedure, shortened: as §1
# [28] = target: Gal(a1-3)Gal(b1-4)Glc
# Procedure, shortened: as §1
# [29] = target: Gal(a1-3)Gal(b1-4)GlcNAc
# Procedure, shortened: as §1
# [30] = target: Gal(a1-3)Gal(b1-4)[Fuc(a1-3)]GlcNAc
# Procedure, shortened: as §1
# [31] = target: Gal(a1-3)Gal(b1-4)[Fuc(a1-3)]GlcNAc(b1-2)Man(a1-3)[Gal(a1-3)Gal(b1-4)[Fuc(a1-3)]GlcNAc(b1-2)Man(a1-6)]Man(b1-4)GlcNAc(b1-4)GlcNAc
# Procedure, shortened: as §1
# [32] = target: Gal(a1-3)GalNAc
# Procedure, shortened: as §1
# [33] = target: Gal(a1-3)[Gal(a1-4)]Gal(b1-4)GlcNAc
# Procedure, shortened: as §1
# [34] = target: Gal(a1-4)Gal(b1-4)Glc
# Procedure, shortened: as §1
# [35] = target: Gal(a1-4)Gal(b1-4)GlcNAc
# Procedure, shortened: as §1
# [36] = target: Gal(a1-4)Gal(b1-4)GlcNAc(b1-3)Gal(b1-4)Glc
# Procedure, shortened: as §1
# [37] = target: Gal(a1-4)GlcNAc
# Procedure, shortened: as §1
# [38] = target: Gal(a1-6)Glc
# Procedure, shortened: as §1
binder,measurement,setting,value
B1,glycan array binding signal (z-score),[1],-0.1
same,glycan array binding signal (z-score),[2],0.185
same,glycan array binding signal (z-score),[3],-0.122
same,glycan array binding signal (z-score),[4],-0.161
same,glycan array binding signal (z-score),[5],-0.027
same,glycan array binding signal (z-score),[6],-0.105
same,glycan array binding signal (z-score),[7],3.68
same,glycan array binding signal (z-score),[8],1.84
same,glycan array binding signal (z-score),[9],-0.377
same,glycan array binding signal (z-score),[10],0.041
same,glycan array binding signal (z-score),[11],-0.339
same,glycan array binding signal (z-score),[12],-0.284
same,glycan array binding signal (z-score),[13],-0.462
same,glycan array binding signal (z-score),[14],-0.343
same,glycan array binding signal (z-score),[15],-0.309
same,glycan array binding signal (z-score),[16],-0.223
same,glycan array binding signal (z-score),[17],0.017
same,glycan array binding signal (z-score),[18],0.048
same,glycan array binding signal (z-score),[19],-0.194
same,glycan array binding signal (z-score),[20],0.188
same,glycan array binding signal (z-score),[21],-0.391
same,glycan array binding signal (z-score),[22],-0.113
same,glycan array binding signal (z-score),[23],-0.338
same,glycan array binding signal (z-score),[24],-0.391
same,glycan array binding signal (z-score),[25],-0.226
same,glycan array binding signal (z-score),[26],-0.271
same,glycan array binding signal (z-score),[27],-0.253
same,glycan array binding signal (z-score),[28],-0.277
same,glycan array binding signal (z-score),[29],-0.205
same,glycan array binding signal (z-score),[30],-0.238
same,glycan array binding signal (z-score),[31],-0.194
same,glycan array binding signal (z-score),[32],0.053
same,glycan array binding signal (z-score),[33],0.665
same,glycan array binding signal (z-score),[34],-0.207
same,glycan array binding signal (z-score),[35],0.013
same,glycan array binding signal (z-score),[36],-0.048
same,glycan array binding signal (z-score),[37],0.344
same,glycan array binding signal (z-score),[38],-0.254
